# In PMC6919601, “Identification of Plasmodium dipeptidyl aminopeptidase allosteric inhibitors by high throughput screening” (PLoS ONE, 2019):
# Among all 110,000 compounds or so, about 230 (0.21%) showed an effect of 50% or more. The list shows a part of the results.
# Biological target: DPAP1 (Plasmodium falciparum, UniProt Q8IIJ9)
# Test: primary screen, percent inhibition; read by cleavage of a fluorogenic dipeptide substrate; higher = more effect of the substance
# Set-up: species or system P. falciparum D10 trophozoite lysates; single well
# 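Also: 30 min substrate incubation versus DMSO and 10 µM JCP410 controls.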
# Chain of DPAP1 (Q8IIJ9 whole entry, looked up): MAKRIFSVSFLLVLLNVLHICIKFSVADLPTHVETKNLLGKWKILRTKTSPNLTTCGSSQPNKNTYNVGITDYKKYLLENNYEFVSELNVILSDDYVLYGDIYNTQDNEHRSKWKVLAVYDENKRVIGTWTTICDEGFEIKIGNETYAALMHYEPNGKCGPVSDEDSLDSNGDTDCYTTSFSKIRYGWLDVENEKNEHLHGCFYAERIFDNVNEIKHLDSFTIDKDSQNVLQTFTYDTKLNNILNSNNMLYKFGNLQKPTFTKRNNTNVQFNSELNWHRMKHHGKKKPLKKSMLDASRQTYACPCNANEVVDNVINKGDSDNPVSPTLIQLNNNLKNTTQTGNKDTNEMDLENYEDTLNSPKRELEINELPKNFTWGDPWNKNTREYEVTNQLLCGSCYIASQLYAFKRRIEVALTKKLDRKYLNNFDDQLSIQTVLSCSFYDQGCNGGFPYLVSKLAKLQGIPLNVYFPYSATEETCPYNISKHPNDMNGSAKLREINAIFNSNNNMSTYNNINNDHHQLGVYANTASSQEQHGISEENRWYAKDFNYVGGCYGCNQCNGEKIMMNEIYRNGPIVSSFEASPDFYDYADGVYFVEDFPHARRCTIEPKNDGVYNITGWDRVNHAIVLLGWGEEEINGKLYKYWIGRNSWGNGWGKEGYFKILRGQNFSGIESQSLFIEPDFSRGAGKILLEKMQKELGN
row,SMILES,% Inhibition @ 10 uM [%]
1,C=CCc1cccc2cc(C(=O)Nc3ccccc3O)c(=O)oc12,1.13
2,CC(C)c1ccc(C2=CC(c3cc(Br)ccc3OC(F)F)n3nnnc3N2)cc1 (stereo not shown),-3.46
3,O=C(NC1CCCC1)C1CCN(c2ccc(-c3cccs3)nn2)CC1,-3.98
4,C/C(=N\[C@@H](CS(=O)(=O)Cc1ccccc1OC(F)F)C(=O)NCC#N)NS(=O)(=O)c1cccnc1,-3.14
5,CCn1c(C(=O)N2CCCC(C(=O)NCCCc3ccccc3)C2)cc2sccc21 (stereo not shown),-3
6,COc1cccc(-c2cc(C(=O)Nc3cccc(C(C)=O)c3)c3ccccc3n2)c1,-1.12
7,O=C(CCCCCNS(=O)(=O)c1ccc(Br)cc1)NCc1ccccc1,-1.99
8,CN(CC(=O)O)S(=O)(=O)c1ccc2c(c1)OCCO2,2.73
9,COc1ccc(CNCc2ccccc2OC)cc1Br,2.26
10,Cc1nnc(N2CCC(C(=O)NCCC3=CCCCC3)CC2)c2nn(-c3ccc(Cl)cc3)c(C)c12,4.54
11,C=CCSc1ncnc2sc3c(c12)CCCC3,43.1
12,CC(=O)N1c2ccccc2N=C2CC(C)(C)CC(O)=C2C1c1ccc(-c2cccc(C(=O)O)c2)o1 (stereo not shown),-2.54
13,O=S(=O)(Nc1ccc(Cc2ccncc2)cc1)c1ccc(Br)cc1,-3.03
14,O=C(CN1C(=O)S/C(=C/c2cccc(O)c2)C1=O)Nc1cccc2ccccc12,13.3
15,Cc1nc2ccc(NC(=O)N3CCN(c4ccccn4)CC3)cc2s1,-4.15
16,Brc1cnc(N2CCOCC2)nc1,-8.63
17,CCCCCOc1ccc(C(=O)Nc2nonc2CC)cc1,-3.49
18,OCC1CCCN1C1CCCCCC1 (stereo not shown),2.99
19,Cc1cc(OCC(O)CNC(C)(C)C)ccc1C(C)C (stereo not shown),-2.34
20,Cc1cc(C)nc(-n2nc(C)cc2Nc2ccccc2)n1,-0.479
21,CC(=O)NCc1nc2ccccc2n1C,4.02
22,CCc1ccc(CN(Cc2ccco2)C(=O)c2ccc(F)cc2)cc1,0.635
23,FC(F)(F)c1cc(-c2cccs2)nc2nc(S)nn12,1.42
24,CCS(=O)(=O)c1nc(S(=O)(=O)c2ccc(C)cc2)c(N2CCCC(C)C2)s1 (stereo not shown),-5.89
25,CN1CCN(Cc2c(F)cccc2Cl)CC1,-3.79
26,O=C(NC1CCCCCC1)c1cccnc1Cl,-1.12

row,SMILES,% Inhibition @ 10 uM [%]
1,COc1nc(-c2ccccc2)nc(C)c1C,0.163
2,CCOc1ccc(C(=O)Nc2ccccc2OC)cc1,-1.07
3,COc1ccc(C=C2C(=O)c3ccccc3C2=O)c(C)c1,1.19
4,Cc1ccc(SCc2cc(O)nc(Nc3nc4ccccc4o3)n2)cc1,5.55
5,COc1ccc2cc3cc(C(=O)NCCc4ccc(OC)c(OC)c4)oc3nc2c1,3.53
6,CCc1ccccc1NC(=O)COc1ccc(Cl)cc1Cl,-5.41
7,CCOc1ccccc1OCc1nn2c(-c3cc(OC)c(OC)c(OC)c3)nnc2s1,-2.21
8,Cc1nn(CCCC(=O)NCCCN2CCCC2=O)c(=O)c2c1sc1ccccc12,-5.27
9,Cc1cc(NC(=O)CSc2nc3c(c(=O)n2C)SC(C)C3)no1 (stereo not shown),0.205
10,COc1cc2nc(SCc3ccc(Cl)cc3)n3nc(C)nc3c2cc1OC,-2.29
11,CCOC(=O)c1ccc(S(=O)(=O)N2CCN(CCC#N)CC2)cc1,-1.82
12,CCN1C(=O)/C(=C\c2cc3c(cc2OC)OCO3)S/C1=N\c1ccc(N2CCOCC2)cc1,38.5
13,Cc1nc2cc(NC(=O)N3CCN(c4ccccc4)CC3)ccc2o1,-6.36
14,COc1ccc(C)cc1N(CC(=O)N1CCCCCC1)S(=O)(=O)c1ccc(C)cc1,0.956
15,CC1=C(C#N)C(C)C2=C(O)CC(C)(C)CC2=N1 (stereo not shown),-4.06
16,CCSc1c(O)cnn(C2CCCCC2)c1=O,-2.36
17,COc1ccc2c(c1)O[C@H](c1ccccc1)[C@H](O)C2,-14.6
18,CN1C(C(=O)N2CCCCC2)=CC(c2cccs2)=NS1(=O)=O,2.32
19,CC(=O)c1ccc(NC(=O)Cc2cccs2)cc1,4
20,Cc1ccc(CN2CCN(Cc3ccncc3)CC2)cc1,-3.37
21,CCCN1CCC(NCCc2ccccc2Cl)CC1,5.03
22,CCCCC(NC(=O)C(Cc1c(F)cccc1F)NC(=O)c1ccc(-c2ccccc2Cl)cc1)C(=O)c1nc2ccccc2o1 (stereo not shown),2.87
23,CCOC(=O)N1CCN(c2cc(C)nc3c(-c4ccc(Cl)cc4)c(C)nn23)CC1,-2.72
24,CCc1nn(CC(=O)N2CCN(C)CC2)c(=O)c2cc3occc3n12,4.55
25,CCCN(CCC)c1nc(Cl)nc(NCCN2CCOCC2)n1,-0.85
26,Cc1c(C)n(C)c2ccc(C(=O)NC(C)c3ccccc3)cc12 (stereo not shown),5.88
